# Assay results as given in PubChem BioAssay AID1030 (National Center for Advancing Translational Sciences (NCATS), 2008).
# The campaign covered roughly 220,000 compounds. About 16,000 (7.3%) were called active. Inconclusive means that the source gave no clear call. Such entries were picked first, then a sample of the others. The call rests on the fitted dose curve; in most records, active means well fitted inhibition curve with a large enough effect (not every such curve was filed as active); inconclusive means small, poorly fitted or top-dose-only effect, or another doubt; inactive means no such curve, though single readings can be large or run the other way. Potencies of inconclusive entries are left out as doubtful fits.
# Target: Aldehyde dehydrogenase 1A1 (Homo sapiens) (UniProt P00352)
# Chain of UniProt P00352 (P00352 whole entry, looked up): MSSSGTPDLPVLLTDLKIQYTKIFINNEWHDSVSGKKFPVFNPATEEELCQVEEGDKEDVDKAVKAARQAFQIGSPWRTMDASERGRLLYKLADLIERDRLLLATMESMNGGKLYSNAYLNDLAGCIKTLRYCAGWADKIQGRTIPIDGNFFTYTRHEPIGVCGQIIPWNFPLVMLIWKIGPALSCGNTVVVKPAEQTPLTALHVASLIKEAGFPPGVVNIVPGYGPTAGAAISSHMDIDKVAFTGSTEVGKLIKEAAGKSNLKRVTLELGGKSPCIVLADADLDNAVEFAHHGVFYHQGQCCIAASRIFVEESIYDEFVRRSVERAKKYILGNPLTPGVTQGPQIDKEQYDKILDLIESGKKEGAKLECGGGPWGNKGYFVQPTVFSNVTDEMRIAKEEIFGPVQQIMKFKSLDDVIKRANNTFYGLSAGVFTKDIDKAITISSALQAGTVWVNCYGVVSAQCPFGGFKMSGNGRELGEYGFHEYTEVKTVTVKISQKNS
# Test: qHTS Assay for Inhibitors of Aldehyde Dehydrogenase 1 (ALDH1A1);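 on activity, negative = inhibition: plate controls were no enzyme wells and a reference inhibitor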
# Details: Purified ALDH1A1, NADH fluorescence, propionaldehyde substrate; series mostly up to 75.3 µM; activity, negative = inhibition: at the top concentration
# Potency means the concentration at half of the fitted maximal effect; tags describe the fitted curve by direction and shape.
Structure (SMILES),Potency,"activity, negative = inhibition"
COc1ccc(C(=O)NCC(=O)NCC(=O)OCC(=O)c2cccs2)cc1,active: 15.8 µM,–
CC(=O)c1ccccc1Oc1nc(CN2CCOCC2)nc2scc(-c3cccs3)c12,active: 22.4 µM,–
Cc1ccnc(NC(=O)CCC(=O)N(CC(=O)NCc2ccccc2)Cc2ccco2)c1,"inconclusive [inhibitor, partial curve]",–
COC(=O)c1ccc(C(=O)OC)c(NC(=S)N2CCCCC2)c1,"inconclusive [inhibitor, partial curve]",–
CCc1c(C#N)c(SCCC(=O)Nc2ccc(F)cc2)nc2c1C(=O)CC(C)(C)C2,"inconclusive [inhibitor, partial curve]",–
CCOC(=O)c1cccc(NC(=O)CCS(=O)(=O)c2ccc(Br)s2)c1,–,inactive: 11.4%
CNC(=O)c1[nH]cnc1C(=O)N[C@@H](CC(C)C)C(=O)OCc1ccccc1,–,inactive: 4.76%
COc1ccc(OC)c(NC(=O)CN2CCN(C(=O)c3ccco3)CC2)c1,"inconclusive [inhibitor, single point]",–
CC1(C)Cc2c(c(-c3ccccc3)[nH]c(=O)c2C#N)CS1,active: 28.2 µM,–
Cn1cc(SCC(=O)NCCc2ccccc2)c2ccccc21,–,inactive: 1.78%
CCOC(=O)c1cnc2ccccc2c1NCc1ccco1,"inconclusive [inhibitor, partial curve]",–
O=C(CN(Cc1ccccc1F)C(=O)c1ccco1)NCc1ccc(F)cc1,"inconclusive [inhibitor, partial curve]",–
O=C(Nc1cccc(F)c1)N1CCCC2(CCN(C(=O)c3csnn3)CC2)C1,–,inactive: 5.31%
N/C(=N\OC(=O)CCCC(=O)O)c1ncc(C(F)(F)F)cc1Cl,"inconclusive [inhibitor, single point]",–
NC(=O)N/N=C\c1ccc([N+](=O)[O-])o1,–,inactive: -14.4% [at 20.9 µM]
Cc1c(CCO)sc[n+]1CC(=O)OCCC12CC3CC(CC(C3)C1)C2,–,inactive: -8.65%
Cn1c(-c2cccc(Br)c2)cnc1NCc1cccnc1,active: 11.2 µM,–
CCOC(=O)c1ccc(Nc2ncnc3c2cnn3C)cc1,"inconclusive [inhibitor, single point]",–
Cc1nnc(NC(=O)C2c3ccccc3Oc3ccccc32)s1,–,inactive: -14.2%
Cc1cc(C)n2c(SCc3nnc(-c4cccs4)o3)nnc2n1,"inconclusive [inhibitor, single point]",–
C=CCOC(=O)/C(=C/c1ccco1)NC(=O)/C=C/c1ccccc1,active: 15.8 µM,–
COc1cc(C2NC(C(=O)O)CS2)ccc1OCc1ccccc1C#N (stereo not drawn),active: 8.91 µM,–
O=C(Nc1c(F)cc(F)cc1Br)c1cc(S(=O)(=O)N2CCN(c3ccccn3)CC2)ccc1F,"inconclusive [inhibitor, single point]",–
Cc1ccc(S(=O)(=O)c2cc(O)ccc2O)cc1C,"inconclusive [inhibitor, partial curve]",–
N#Cc1ccc(C(=O)CSc2n[nH]c(=O)n2-c2cccnc2)cc1,"inconclusive [inhibitor, single point]",–

Structure (SMILES),Potency,"activity, negative = inhibition"
O=C(Nc1ccc(NC(=O)c2cccs2)cc1)c1ccco1,–,inactive: -3.32%
COc1ccccc1N=Cc1c(C)[nH]n(-c2ccc(C)cc2C)c1=O,"inconclusive [inhibitor, single point]",–
COC(=O)CC1Oc2ccccc2N(Cc2ccc(C)cc2)C1=O (stereo not drawn),"inconclusive [inhibitor, partial curve]",–
O=c1c(-c2ccc3c(c2)OCCO3)coc2cc(O)cc(O)c12,active: 15.8 µM,–
CC(C)COC(=O)c1cc(=O)[nH]c2ccccc12,"inconclusive [inhibitor, single point]",–
CCOC(=O)c1ccc(S(=O)(=O)NC2CCCCCCC2)n1C,"inconclusive [inhibitor, partial curve]",–
COc1ccc(CN(Cc2ccc(C(=O)O)cc2)C(=S)Nc2ccccc2Cl)cc1OC,"inconclusive [inhibitor, single point]",–
CC(=O)Nc1ccc(S(=O)(=O)Nc2ccc(F)c([N+](=O)[O-])c2)cc1,"inconclusive [inhibitor, single point]",–
CC1CC(C)CN(CC(=O)NCCc2ccc(S(N)(=O)=O)cc2)C1 (stereo not drawn),–,inactive: 18.4%
CC1(C)CC(=O)C(C=Nc2cccnc2)=C(O)C1,active: 7.94 µM,–
Cc1ccc(S(=O)(=O)N2CCN(c3ccc([N+](=O)[O-])c4cccnc34)CC2)cc1,"inconclusive [inhibitor, partial curve]",–
CSc1ccc(C(=O)C2CCCN(C(=O)CCCn3cncn3)C2)cc1 (stereo not drawn),active: 15.8 µM,–
CCOC(=O)c1c(-c2ccc(F)cc2)csc1NC(=O)CCN1CCOCC1,"inconclusive [inhibitor, single point]",–
COC(=O)c1sccc1-c1ccc(/C=N/OCc2c(Cl)cccc2Cl)o1,"inconclusive [inhibitor, partial curve]",–
O=S(=O)(c1ccccc1)N1CCC2(CC1)CN(c1ccccn1)C2,"inconclusive [inhibitor, single point]",–
CO/N=C(\Cn1ncc(N2CCCC2)c(Br)c1=O)c1ccc(Cl)cc1,"inconclusive [inhibitor, single point]",–
NC(=O)c1c(NC(=O)c2ccncc2)sc2c1CCCC2,"inconclusive [inhibitor, single point]",–
C=CCn1c(SC2CCOC2=O)nc2scc(C3CC3)c2c1=O (stereo not drawn),"inconclusive [inhibitor, single point]",–
CCOC(=O)c1ccc(N2C(=O)CC(N(C)CCc3ccc(OC)c(OC)c3)C2=O)cc1 (stereo not drawn),active: 10 µM,–
Cc1ccc(-c2nn3cnnc3c3ccccc23)cc1,"inconclusive [inhibitor, single point]",–
COc1nc(-c2ccccc2)c2c(c1C#N)CC(C)(C)OC2,"inconclusive [inhibitor, partial curve]",–
CCCCOc1nc2ccccc2nc1C(C#N)S(=O)(=O)c1ccccc1 (stereo not drawn),"inconclusive [inhibitor, partial curve]",–
CCN(CC)S(=O)(=O)c1ccc(OCC(=O)NCc2ccccc2)cc1,"inconclusive [inhibitor, partial curve]",–
CC(C)Cn1c(-c2csc3c2CCCC3)n[nH]c1=S,active: 35.5 µM,–
Cc1ccccc1C(=O)/C=C1/SCC(=O)N1C,–,inactive: 7.76%

Structure (SMILES),Potency,"activity, negative = inhibition"
CCCCC1=CC2=C(c3ccco3)C(=O)C(C)(OC(=O)c3ccc(OC)cc3)C(=O)C2=CN1c1ccccc1 (stereo not drawn),"inconclusive [inhibitor, single point]",–
CCOc1ccc(S(=O)(=O)Nc2ccc(C(=O)N/N=C/c3c(C)nn(-c4ccccc4)c3N3CCCC3)cc2)cc1,"inconclusive [inhibitor, single point]",–
CCN(CC)S(=O)(=O)c1ccc2[nH]c(=O)cc(C(=O)Nc3cccc(C(C)=O)c3)c2c1,"inconclusive [inhibitor, full curve]",–
CC(=O)c1cn(CCC(C)C)c(=O)[nH]c1=O,–,inactive: 13.6%
COc1cccc2cc(NC(=O)C3CCCCC3)c(=O)oc12,"inconclusive [inhibitor, single point]",–
FC(F)(F)c1ccccc1NC(=S)N1CCN(Cc2ccc3c(c2)OCO3)CC1,"inconclusive [inhibitor, single point]",–
Cc1ccc(Cl)cc1Nc1nc(-c2sc(NC(=O)c3cccc(Cl)c3)nc2C)cs1,"inconclusive [inhibitor, partial curve]",–
O=C(Cc1ccccc1)N/N=C/c1ccc([N+](=O)[O-])s1,"inconclusive [inhibitor, partial curve]",–
CC1(C)S/C(=N/N=C/c2ccco2)NC1=O,–,inactive: 10.5%
CN(C)C(=O)c1ccc(-c2ccc3ncnc(NCCN4CCOCC4)c3c2)cc1,"inconclusive [inhibitor, single point]",–
Cc1ccccc1C(=O)N[C@H](C(=O)Nc1ccc(Cl)c(Cl)c1)C(C)C,–,inactive: 17.8%
c1csc(-c2nnc(N3CCCCCC3)c3ccccc23)c1,"inconclusive [inhibitor, single point]",–
COc1ccc(C2CC(c3ccccc3)=NN2C(=O)COC(=O)c2cccnc2Cl)cc1 (stereo not drawn),"inconclusive [inhibitor, single point]",–
CCCc1cc(=O)[nH]c(SCc2cccnc2)n1,–,inactive: -3.72%
Cc1cc(N2CCC(C)CC2)c(F)cc1[N+](=O)[O-],active: 10 µM,–
COC(=O)c1cn(-c2ccccc2)nc1-c1ccc(OC)cc1,"inconclusive [inhibitor, single point]",–
COc1cc(NC(=O)Cn2ccsc2=N)cc(OC)c1,"inconclusive [inhibitor, single point]",–
O=C(CCSCc1ccc(Cl)cc1)NC1CCCC1,–,inactive: -0.631%
O=C(NNc1nc(-c2ccccc2)cs1)c1ccco1,–,inactive: 5.28%
CN(CCO)c1nc(N)c2c(N)nc3c(c2c1C#N)CC(=O)N3Cc1cccs1,"inconclusive [inhibitor, partial curve]",–
COc1ccc(C(c2sc3nc(C)nn3c2O)N2CCC(C(N)=O)CC2)cc1OC (stereo not drawn),–,inactive: 3.57%
O=C(CSc1nnc(-c2cccs2)o1)N1CCCCC1,"inconclusive [inhibitor, single point]",–
O=S(=O)(c1ccc(Cl)c(NC(=S)N/N=C/c2ccc(O)cc2)c1)N1CCOCC1,active: 10 µM,–
